According to article PMC8024306:
These are yes or no findings as the source states them, for the method shown. Binding seen in cells or lysates may run through a third protein. Some binding calls cover weakened binding; strength is not graded here. Tags and fused reporters may be left off the sequences shown.

Key:
[1] = target: T1, RCB-HA-His (REGULATOR OF CHLOROPLAST BIOGENESIS, HA- and His-tagged, in the transgenic line RCB-HA-His/rcb-10) (Arabidopsis thaliana) (UniProt F4JLC1); test: co-IP; lysate of 4-d-old transgenic seedlings (RCB-HA-His/rcb-10 or HMR-HA/hmr-5) grown in 10 μmol m^-2 s^-1 R light at 21 °C; HA-tagged protein precipitated on anti-HA matrix, 4 h at 4 °C, Co-IP buffer 50 mM Tris-Cl pH 7.5, 100 mM NaCl, 0.1% NP-40; partner detected by immunoblot; Col-0 as negative …
T1 sequence: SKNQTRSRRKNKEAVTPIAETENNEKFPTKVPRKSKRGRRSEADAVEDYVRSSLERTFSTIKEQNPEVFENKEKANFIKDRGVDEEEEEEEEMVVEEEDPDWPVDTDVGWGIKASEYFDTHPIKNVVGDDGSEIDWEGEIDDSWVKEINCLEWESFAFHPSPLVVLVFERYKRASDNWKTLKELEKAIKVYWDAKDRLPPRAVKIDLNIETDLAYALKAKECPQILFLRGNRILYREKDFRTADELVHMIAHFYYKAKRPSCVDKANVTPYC

[2] = target: T2, HMR-HA (HEMERA, HA-tagged, in the transgenic line HMR-HA/hmr-5) (Arabidopsis thaliana) (UniProt F4IHY7); test: as above
T2 sequence: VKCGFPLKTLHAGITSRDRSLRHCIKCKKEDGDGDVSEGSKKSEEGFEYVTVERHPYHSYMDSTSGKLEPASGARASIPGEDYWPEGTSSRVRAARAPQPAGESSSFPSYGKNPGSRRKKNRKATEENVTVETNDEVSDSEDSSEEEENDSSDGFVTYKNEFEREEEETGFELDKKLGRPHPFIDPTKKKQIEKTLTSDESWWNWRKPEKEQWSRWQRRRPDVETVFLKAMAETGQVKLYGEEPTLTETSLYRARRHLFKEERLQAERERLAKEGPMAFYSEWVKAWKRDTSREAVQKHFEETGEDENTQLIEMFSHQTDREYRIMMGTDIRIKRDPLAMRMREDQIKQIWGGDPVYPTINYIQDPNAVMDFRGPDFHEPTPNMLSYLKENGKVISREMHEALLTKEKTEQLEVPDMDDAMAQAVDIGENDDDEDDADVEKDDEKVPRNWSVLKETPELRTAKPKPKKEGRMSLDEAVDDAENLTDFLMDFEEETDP

[3] = target: T3, HMR^D516N (HMR22) (Arabidopsis thaliana) (UniProt F4IHY7); test: pull-down; pulldown of HMR22 (D516N) against wild-type HMR with RCB; details only in Supplementary Fig. 2
T3 sequence: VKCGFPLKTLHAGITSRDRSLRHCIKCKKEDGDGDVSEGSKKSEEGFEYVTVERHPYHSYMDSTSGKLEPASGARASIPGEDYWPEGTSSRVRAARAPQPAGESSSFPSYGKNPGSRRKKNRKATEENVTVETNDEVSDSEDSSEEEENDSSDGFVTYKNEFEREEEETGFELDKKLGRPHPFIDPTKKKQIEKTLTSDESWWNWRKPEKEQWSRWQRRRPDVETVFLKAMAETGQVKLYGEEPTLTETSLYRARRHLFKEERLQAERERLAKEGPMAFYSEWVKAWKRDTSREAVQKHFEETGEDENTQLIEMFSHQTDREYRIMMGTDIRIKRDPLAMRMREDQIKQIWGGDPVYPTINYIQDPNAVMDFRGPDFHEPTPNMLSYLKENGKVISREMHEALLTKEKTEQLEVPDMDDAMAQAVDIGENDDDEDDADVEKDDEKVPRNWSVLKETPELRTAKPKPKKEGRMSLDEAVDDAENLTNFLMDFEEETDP

[4] = target: T4, GST-HMRΔ115 (Arabidopsis thaliana) (UniProt F4IHY7); test: pull-down; GST or GST-HMR baits immobilized on glutathione Sepharose beads; in vitro translated HA-RCB preys, 4 °C for 2 h; washed with E buffer (50 mM Tris-HCl pH 7.5, 100 mM NaCl, 0.1% Nonidet P-40); anti-HA immunoblot; only the target purified
T4 sequence: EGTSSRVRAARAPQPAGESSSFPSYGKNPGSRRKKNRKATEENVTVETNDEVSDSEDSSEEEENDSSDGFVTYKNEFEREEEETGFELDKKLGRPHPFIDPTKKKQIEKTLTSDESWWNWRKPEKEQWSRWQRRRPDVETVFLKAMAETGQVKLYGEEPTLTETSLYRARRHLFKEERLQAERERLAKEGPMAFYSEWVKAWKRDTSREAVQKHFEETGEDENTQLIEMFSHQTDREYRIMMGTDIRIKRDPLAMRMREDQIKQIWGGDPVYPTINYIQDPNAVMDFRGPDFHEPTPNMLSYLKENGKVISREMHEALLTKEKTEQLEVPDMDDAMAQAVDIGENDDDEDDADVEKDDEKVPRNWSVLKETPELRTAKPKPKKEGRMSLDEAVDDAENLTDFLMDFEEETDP

[5] = target: T5, GST-HMRΔ251 (Arabidopsis thaliana) (UniProt F4IHY7); test: as above
T5 sequence: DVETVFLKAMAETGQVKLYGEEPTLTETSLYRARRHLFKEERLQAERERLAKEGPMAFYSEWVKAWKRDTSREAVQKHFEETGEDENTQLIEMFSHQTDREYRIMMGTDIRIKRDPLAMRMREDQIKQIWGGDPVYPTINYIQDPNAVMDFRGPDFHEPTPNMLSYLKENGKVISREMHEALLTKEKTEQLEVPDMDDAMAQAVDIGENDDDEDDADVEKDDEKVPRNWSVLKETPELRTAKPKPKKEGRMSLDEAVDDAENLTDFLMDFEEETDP

B1: HEMERA (HMR), endogenous in RCB-HA-His/rcb-10 seedlings (protein, UniProt F4IHY7 31-527)
chain: VKCGFPLKTLHAGITSRDRSLRHCIKCKKEDGDGDVSEGSKKSEEGFEYVTVERHPYHSYMDSTSGKLEPASGARASIPGEDYWPEGTSSRVRAARAPQPAGESSSFPSYGKNPGSRRKKNRKATEENVTVETNDEVSDSEDSSEEEENDSSDGFVTYKNEFEREEEETGFELDKKLGRPHPFIDPTKKKQIEKTLTSDESWWNWRKPEKEQWSRWQRRRPDVETVFLKAMAETGQVKLYGEEPTLTETSLYRARRHLFKEERLQAERERLAKEGPMAFYSEWVKAWKRDTSREAVQKHFEETGEDENTQLIEMFSHQTDREYRIMMGTDIRIKRDPLAMRMREDQIKQIWGGDPVYPTINYIQDPNAVMDFRGPDFHEPTPNMLSYLKENGKVISREMHEALLTKEKTEQLEVPDMDDAMAQAVDIGENDDDEDDADVEKDDEKVPRNWSVLKETPELRTAKPKPKKEGRMSLDEAVDDAENLTDFLMDFEEETDP
Which binding [1] does the source give for B1 here?
The binding was “binds”.

B2: REGULATOR OF CHLOROPLAST BIOGENESIS (RCB), endogenous in HMR-HA/hmr-5 seedlings (protein, UniProt F4JLC1 60-331)
chain: SKNQTRSRRKNKEAVTPIAETENNEKFPTKVPRKSKRGRRSEADAVEDYVRSSLERTFSTIKEQNPEVFENKEKANFIKDRGVDEEEEEEEEMVVEEEDPDWPVDTDVGWGIKASEYFDTHPIKNVVGDDGSEIDWEGEIDDSWVKEINCLEWESFAFHPSPLVVLVFERYKRASDNWKTLKELEKAIKVYWDAKDRLPPRAVKIDLNIETDLAYALKAKECPQILFLRGNRILYREKDFRTADELVHMIAHFYYKAKRPSCVDKANVTPYC
B2 was tested. Which binding [2] did it give?
Its binding is “binds”.

B3: HA-tagged full-length RCB (HA-RCB) (protein, UniProt F4JLC1 1-331)
chain: MSFFAVACSAPRSSMLLTGLNSSFSDMHRSPLFVFPVTISSRSVKRFAAVSSDSVLDPESKNQTRSRRKNKEAVTPIAETENNEKFPTKVPRKSKRGRRSEADAVEDYVRSSLERTFSTIKEQNPEVFENKEKANFIKDRGVDEEEEEEEEMVVEEEDPDWPVDTDVGWGIKASEYFDTHPIKNVVGDDGSEIDWEGEIDDSWVKEINCLEWESFAFHPSPLVVLVFERYKRASDNWKTLKELEKAIKVYWDAKDRLPPRAVKIDLNIETDLAYALKAKECPQILFLRGNRILYREKDFRTADELVHMIAHFYYKAKRPSCVDKANVTPYC
How did the binding [3] turn out when B3 was run?
The binding was “binds”.

What about the binding [4] of the same binder?
Its binding is “no binding”.

What about the binding [5] of the same binder?
The binding was “binds”.

B4: HA-RCBΔ51 (domain or fragment, UniProt F4JLC1 52-331)
chain: SDSVLDPESKNQTRSRRKNKEAVTPIAETENNEKFPTKVPRKSKRGRRSEADAVEDYVRSSLERTFSTIKEQNPEVFENKEKANFIKDRGVDEEEEEEEEMVVEEEDPDWPVDTDVGWGIKASEYFDTHPIKNVVGDDGSEIDWEGEIDDSWVKEINCLEWESFAFHPSPLVVLVFERYKRASDNWKTLKELEKAIKVYWDAKDRLPPRAVKIDLNIETDLAYALKAKECPQILFLRGNRILYREKDFRTADELVHMIAHFYYKAKRPSCVDKANVTPYC
How did the binding [5] turn out when B4 was run?
Its binding is “binds”.

B5: HA-RCBΔ89 (domain or fragment, UniProt F4JLC1 90-331)
chain: VPRKSKRGRRSEADAVEDYVRSSLERTFSTIKEQNPEVFENKEKANFIKDRGVDEEEEEEEEMVVEEEDPDWPVDTDVGWGIKASEYFDTHPIKNVVGDDGSEIDWEGEIDDSWVKEINCLEWESFAFHPSPLVVLVFERYKRASDNWKTLKELEKAIKVYWDAKDRLPPRAVKIDLNIETDLAYALKAKECPQILFLRGNRILYREKDFRTADELVHMIAHFYYKAKRPSCVDKANVTPYC
Which binding [5] does the source give for B5 here?
The binding was “binds”.

B6: HA-RCBΔ159 (domain or fragment, UniProt F4JLC1 160-331)
chain: DWPVDTDVGWGIKASEYFDTHPIKNVVGDDGSEIDWEGEIDDSWVKEINCLEWESFAFHPSPLVVLVFERYKRASDNWKTLKELEKAIKVYWDAKDRLPPRAVKIDLNIETDLAYALKAKECPQILFLRGNRILYREKDFRTADELVHMIAHFYYKAKRPSCVDKANVTPYC
For B6, which binding [5] is on record?
The binding was “binds”.
